# How the values were obtained:
# cells [1] = type: functional, cell-based; details: Homo sapiens, Enzalutamide-resistant C4-2B
# LNCaP C4-2 = assay: cells; type: functional, cell-based; details: Homo sapiens
# LNCaP = assay: cells; type: functional, cell-based; details: Homo sapiens
# CWR22R = assay: cells; type: functional, cell-based; details: Homo sapiens, 22Rv1, […]
# Androgen receptor = target: T1, Androgen receptor (Homo sapiens, UniProt P10275)
# T1 sequence (P10275 whole entry): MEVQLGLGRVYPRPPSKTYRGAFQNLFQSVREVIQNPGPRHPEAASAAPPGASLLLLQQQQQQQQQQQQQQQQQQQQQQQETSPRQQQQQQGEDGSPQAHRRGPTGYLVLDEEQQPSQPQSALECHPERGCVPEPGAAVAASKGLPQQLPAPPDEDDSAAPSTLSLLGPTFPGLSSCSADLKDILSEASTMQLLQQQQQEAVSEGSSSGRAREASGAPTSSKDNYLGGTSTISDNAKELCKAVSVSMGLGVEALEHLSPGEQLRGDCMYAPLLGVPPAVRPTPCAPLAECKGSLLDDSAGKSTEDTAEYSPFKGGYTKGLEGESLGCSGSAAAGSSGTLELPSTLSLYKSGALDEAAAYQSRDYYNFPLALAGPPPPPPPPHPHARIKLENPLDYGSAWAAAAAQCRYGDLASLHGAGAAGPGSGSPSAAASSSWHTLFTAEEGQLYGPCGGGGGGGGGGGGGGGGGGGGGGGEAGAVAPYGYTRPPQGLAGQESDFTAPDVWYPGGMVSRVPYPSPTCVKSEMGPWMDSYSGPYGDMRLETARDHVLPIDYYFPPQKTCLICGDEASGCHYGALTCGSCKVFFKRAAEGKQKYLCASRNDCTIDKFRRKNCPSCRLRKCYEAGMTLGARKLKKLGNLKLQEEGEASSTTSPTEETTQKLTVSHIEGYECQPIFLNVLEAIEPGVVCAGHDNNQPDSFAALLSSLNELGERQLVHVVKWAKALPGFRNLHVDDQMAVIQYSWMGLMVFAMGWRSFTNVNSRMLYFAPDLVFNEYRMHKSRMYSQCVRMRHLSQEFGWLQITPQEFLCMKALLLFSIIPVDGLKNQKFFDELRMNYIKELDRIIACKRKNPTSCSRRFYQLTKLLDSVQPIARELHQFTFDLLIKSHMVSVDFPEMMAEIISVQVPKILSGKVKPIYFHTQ
# cells [2] = type: functional, cell-based; details: Homo sapiens, Enzalutamide-resistant LNCaP
smiles,measurement,setting,value
C[C@](O)(CN1CC2CCC(C1)N2c1ccc(C#N)cc1)C(=O)Nc1ccc(C#N)c(C(F)(F)F)c1,IC50,cells [1],6270 nM
same,IC50,LNCaP C4-2,1480 nM
same,IC50,LNCaP,1770 nM
same,IC50,CWR22R,2360 nM
C[C@](O)(CN1C2CCC1CN(c1ccc(C#N)cc1)C2)C(=O)Nc1ccc(C#N)c(C(F)(F)F)c1,IC50,CWR22R,4170 nM
COc1c(C#N)ccc(NC(=O)[C@@](C)(O)CN2CC3CCC(C2)N3c2ccc(C#N)cc2)c1F,IC50,Androgen receptor,1420 nM
C[C@](O)(CN1CC2CCC(C1)N2c1ccc(C#N)cc1)C(=O)Nc1cnc(C#N)c(Cl)c1,IC50,Androgen receptor,233 nM
COc1cc(NC(=O)[C@@](C)(O)CN2CC3CCC(C2)N3c2ccc(C#N)cc2)ccc1C#N,IC50,Androgen receptor,319 nM
C[C@](O)(CN1CC2CCC(C1)N2c1cnc(C#N)nc1)C(=O)Nc1cnc(C#N)c(C(F)(F)F)c1,IC50,Androgen receptor,371 nM
CNC(=O)c1ccc(N2C(=S)N(c3ccc(C#N)c(C(F)(F)F)c3)C(=O)C2(C)C)cc1F [ENZALUTAMIDE],IC50,cells [1],17000 nM
same,IC50,LNCaP C4-2,1160 nM
same,IC50,LNCaP,890 nM
same,IC50,cells [2],18400 nM

# — ChEMBL document CHEMBL6109158, “Discovery of Novel Bifunctional Agents as Potent Androgen Receptor Antagonists and Degraders for the Treatment of Enzalutamide-Resistant Prostate Cancer” (J Med Chem, 2025)
